Measurements reported in PubChem BioAssay AID2060341 (Molecular Pharmacology Branch, DTP, NCI, 2025).
The source holds more than one record for some entries. This is not the full list of results. An entry can have further records. Results that share an entry are repeated measurements in other runs, samples, wells, individuals or studies.

Tested on: 327498-153-R-J2-PDC multicell spheroid viability
Assay: Anticancer human tumor 327498-153-R-J2-PDC patient-derived uterine carcinosarcoma cell line growth inhibition [IpAb]
Conditions: compound alone; run of 05/18/2021
Source text: Combinatorial screen of targeted agents with ipatasertib and abemaciclib in multi-cell type tumor spheroids
A high-throughput screen of multi-cell type tumor spheroids was designed to identify active combinations of targeted small molecules and ipatasertib or abemaciclib. Complex spheroids include a stromal component modeled by human endothelial cells (HUVEC) and fibroblasts modeled by human mesenchymal stem cells (MSCs). The concentration ranges selected for each drug and investigational agent were based upon clinically achievable concentrations if the clinical Cmax of the agent was known.
Compounds. […] If the clinical Cmax for an agent had not been determined, the highest concentration tested was 10 microM.
NCI60 Cell Culture. […] The optimal seeding densities for each of the cell lines at each time point assessed were determined prior to performing the concentration response studies. […]
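Also: spheroids exposed to agents for 7 days.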

Compound: CCN1CCN(Cc2ccc(Nc3ncc(F)c(-c4cc(F)c5nc(C)n(C(C)C)c5c4)n3)nc2)CC1
- IC50: 855 nM, 746 nM, 806 nM, > 1 µM
